Experimental data reported in the supplement of paper PMC7826260.
The list shows a part of the results. Viral Rep nickase domains cut single-stranded DNA in vitro at 3 µM enzyme and 37 °C for 1 h; the strands have 90 letters, of which the middle is given. Numbers give uncut DNA relative to the enzyme-free pool, as log2; uncut sequences lie near 0, cut ones below; no hit call is given. Shares of all reads are compared; where an enzyme cuts many sequences, the uncut ones exceed 0.

How the values were obtained:
Experiment in all cases: uncleaved DNA left, log2 of reads against the no-enzyme library (log2 ratio); higher = less cleavage (more negative = more Rep cleavage of the k-mer); sequences stand for … in CTCGTCCG…ACCGGAGA
[1] = tested on: T1, Rep nickase domain of Muscovy duck circovirus
T1 sequence (Rep 1-111, printed without the tag): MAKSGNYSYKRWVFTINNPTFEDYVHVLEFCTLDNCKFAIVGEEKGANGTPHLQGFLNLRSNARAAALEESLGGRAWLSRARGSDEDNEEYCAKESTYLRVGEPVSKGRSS
Procedure: (§1)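 A pool of 90-nt single-stranded DNAs with seven random bases just before the constant AC of the nick site (name = the seven bases) was cut by 3 µM recombinant His6-SUMO-tagged Rep nickase domain (300 nM DNA, 50 mM HEPES pH 8.0, 50 mM NaCl, 1 mM MnCl2, 1 h, 37 °C, three replicates). Uncut DNA was amplified and sequenced.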

[2] = tested on: T2, Rep nickase domain of banana bunchy top virus
T2 sequence (Rep 1-94, printed without the tag): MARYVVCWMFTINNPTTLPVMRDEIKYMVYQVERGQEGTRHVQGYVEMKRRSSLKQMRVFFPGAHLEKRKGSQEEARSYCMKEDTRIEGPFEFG
Procedure: as §1

[3] = tested on: T3, Rep nickase domain of cabbage leaf curl virus
T3 sequence (Rep 1-116, printed without the tag): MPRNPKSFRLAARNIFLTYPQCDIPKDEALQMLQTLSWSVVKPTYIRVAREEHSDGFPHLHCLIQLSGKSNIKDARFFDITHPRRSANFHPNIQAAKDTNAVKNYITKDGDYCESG
Procedure: as §1

[4] = tested on: T4, Rep nickase domain of chickpea chlorotic dwarf virus
T4 sequence (Rep 1-124, printed without the tag): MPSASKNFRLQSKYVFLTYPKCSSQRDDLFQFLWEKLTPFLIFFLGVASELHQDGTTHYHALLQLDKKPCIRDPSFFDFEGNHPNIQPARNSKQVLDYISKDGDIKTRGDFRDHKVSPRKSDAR
Procedure: as §1

[5] = tested on: T5, Rep nickase domain of faba bean necrotic yellows virus
T5 sequence (Rep 1-98, printed without the tag): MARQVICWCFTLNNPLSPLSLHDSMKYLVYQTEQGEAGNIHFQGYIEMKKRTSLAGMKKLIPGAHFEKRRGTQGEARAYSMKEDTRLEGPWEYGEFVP
Procedure: as §1

[6] = tested on: T6, Rep nickase domain of maize striate mosaic virus
T6 sequence (Rep 1-117, printed without the tag): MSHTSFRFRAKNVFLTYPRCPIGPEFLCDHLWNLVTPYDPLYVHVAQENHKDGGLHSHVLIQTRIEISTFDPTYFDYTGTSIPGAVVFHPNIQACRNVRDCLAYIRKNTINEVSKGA
Procedure: as §1

[7] = tested on: T7, Rep nickase domain of porcine circovirus 2
T7 sequence (Rep 2-116, printed without the tag): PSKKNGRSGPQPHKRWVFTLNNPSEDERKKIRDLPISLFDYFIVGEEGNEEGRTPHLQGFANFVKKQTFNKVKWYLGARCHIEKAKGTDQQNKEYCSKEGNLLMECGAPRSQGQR
Procedure: as §1

[8] = tested on: T8, Rep nickase domain of tomato golden mosaic virus
T8 sequence (Rep 1-124, printed without the tag): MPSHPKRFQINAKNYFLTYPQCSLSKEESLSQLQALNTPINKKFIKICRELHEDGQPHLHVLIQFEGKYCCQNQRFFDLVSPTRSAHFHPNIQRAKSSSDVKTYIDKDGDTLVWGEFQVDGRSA
Procedure: as §1

[9] = tested on: T9, Rep nickase domain of tomato yellow leaf curl virus
T9 sequence (Rep 1-136, printed without the tag): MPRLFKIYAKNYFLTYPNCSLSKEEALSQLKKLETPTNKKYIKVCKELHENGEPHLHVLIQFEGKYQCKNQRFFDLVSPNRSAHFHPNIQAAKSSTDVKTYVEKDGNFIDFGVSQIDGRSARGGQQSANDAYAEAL
Procedure: as §1

[10] = tested on: T10, Rep nickase domain of wheat dwarf virus
T10 sequence (Rep 1-137, printed without the tag): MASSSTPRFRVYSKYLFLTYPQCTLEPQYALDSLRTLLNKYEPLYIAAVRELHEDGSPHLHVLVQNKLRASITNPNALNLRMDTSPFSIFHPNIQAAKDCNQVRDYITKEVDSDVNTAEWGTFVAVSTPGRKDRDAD
Procedure: as §1

Sequence	uncleaved DNA left (log2) [1]	uncleaved DNA left (log2) [2]	uncleaved DNA left (log2) [3]	uncleaved DNA left (log2) [4]	uncleaved DNA left (log2) [5]	uncleaved DNA left (log2) [6]	uncleaved DNA left (log2) [7]	uncleaved DNA left (log2) [8]	uncleaved DNA left (log2) [9]	uncleaved DNA left (log2) [10]
TCCTTCT	-1.21	-0.0733	-0.0792	-2.42	-0.0173	-0.781	-2.9	-0.167	-0.116	-0.132
TCTCGGA	0.0873	0.00935	0.193	0.898	0.0276	0.736	0.0402	0.131	-0.0295	0.0217
TTCGGCT	-0.00398	-0.0316	-0.301	-0.916	-0.0888	-0.668	0.00452	-0.0875	-0.0923	-0.145
ACGCGAC	0.0517	-0.0389	-0.312	0.0493	-0.0135	-0.815	0.161	0.0423	0.0694	-0.0622
TACCGAT	0.00295	-0.13	-0.211	-1.1	-0.0143	-0.0579	-0.954	-0.0484	-0.0815	-0.027
TGGCGAA	0.0284	0.0537	-0.412	-0.378	0.0731	-0.601	0.0908	-0.13	0.084	0.0398
TTGCTCC	-0.118	-0.175	-0.188	-0.472	-0.0377	-0.838	-0.0384	-0.214	-0.0778	-0.183
TGCTAAA	-0.0945	-0.0802	-0.109	-0.167	-0.0768	-0.597	-0.176	-0.0948	-0.0444	-0.0633
GGACGCG	0.000292	0.0851	-0.686	0.161	-0.0468	-0.46	0.101	-0.0818	-0.0758	-0.149
CGGACTC	-0.167	0.00613	0.595	1.51	-0.132	1.95	-0.0535	-0.14	-0.141	0.0803
GCAGAAT	-0.0169	0.0764	0.147	0.457	-0.055	0.586	0.027	0.11	0.038	0.0245
TCGGTTT	0.00811	-0.19	0.0897	-0.547	-0.115	1.06	-0.159	-0.0635	0.0252	-0.169
GCGATCC	0.0712	-0.105	-0.0422	0.308	-0.168	0.00191	0.00771	-0.113	0.00779	-0.0237
ACGTGTT	-2.9	-0.613	-0.903	-1.94	-1.08	-0.105	-3.37	-0.145	-0.0273	-0.622
GAAATAT	0.0744	0.0451	-0.229	-1.29	-0.0206	1.1	-0.163	0.0294	0.0696	-0.0347
ACACGTT	-0.0125	0.0702	-0.904	-2.32	0.105	-0.805	-0.0562	0.0547	-0.0459	-0.359
ATTACAG	-0.0246	0.0256	-0.939	-2.04	0.0215	-1.16	0.138	-0.0373	-0.038	-0.0634
GTGAATG	0.226	0.206	0.215	0.815	0.17	1.58	0.315	0.163	0.222	0.294
ATGCCAT	-0.0637	-0.0639	-0.0557	-0.197	-0.018	-0.266	-0.0669	-0.0823	0.0255	-0.0695
AGGGACT	0.00967	0.0766	0.441	1.57	0.0384	2.08	0.226	0.0288	-0.0516	0.181

Sequence	uncleaved DNA left (log2) [1]	uncleaved DNA left (log2) [2]	uncleaved DNA left (log2) [3]	uncleaved DNA left (log2) [4]	uncleaved DNA left (log2) [5]	uncleaved DNA left (log2) [6]	uncleaved DNA left (log2) [7]	uncleaved DNA left (log2) [8]	uncleaved DNA left (log2) [9]	uncleaved DNA left (log2) [10]
TGGATAT	0.157	0.091	0.971	2.08	0.00687	2.3	0.331	0.0386	0.204	0.217
ATAGAGC	0.0446	0.125	-0.247	-0.311	0.135	-1.19	0.136	0.0594	0.0183	0.0296
CGAGGAC	0.115	0.178	0.54	1.37	0.197	1.37	0.325	0.141	0.0642	0.0764
AAAAGTG	0.026	0.0338	-0.658	-0.749	-0.00611	-1.03	0.144	0.0737	0.0701	-0.00823
CAATGGG	0.073	0.00179	-0.692	-0.568	0.0753	-0.958	0.121	-0.0488	-0.0156	-0.229
GCAGACG	-0.208	-0.0656	-0.657	-0.399	0.0042	-0.79	0.123	-0.0481	-0.0939	-0.0915
GGATAGG	0.106	-0.0267	0.507	1.24	0.127	1.34	0.139	0.0793	-0.0584	0.102
TATCGGA	-0.0154	0.067	0.168	0.279	-0.0827	-0.0729	0.0569	0.0904	0.0507	-0.0499
GGAGTAG	-0.0554	-0.00452	0.149	0.489	-0.0266	0.0611	0.143	-0.0366	0.0841	-0.0615
GGGTCAT	0.0506	0.243	0.929	2.19	0.0597	2.37	0.174	0.0574	0.0251	0.138
ACAGGAG	0.292	0.0927	-0.439	0.109	0.241	-0.561	0.361	0.27	0.314	0.244
CAGCCGT	0.0522	-0.0902	-0.53	-0.906	0.00464	-0.976	-0.288	-0.121	-0.124	-0.14
GATCTGG	0.182	0.0669	0.372	0.756	0.152	0.556	0.189	0.111	0.0198	0.0767
CGACTAA	-0.0543	0.00383	-0.025	0.65	-0.105	1.22	-0.059	-0.108	-0.0478	0.122
CACCGGC	-0.117	-0.0842	0.0626	-0.103	-0.0992	-0.749	0.0662	-0.0795	-0.123	-0.0392
TGGCAGT	0.232	0.13	0.63	1.25	0.0557	1.17	0.213	0.00835	0.192	0.171
ACCGTGT	-0.168	-0.0539	-0.39	-0.545	0.00504	-1.04	-0.0122	-0.0604	-0.00631	-0.219
CTATATC	0.0525	0.143	-0.0216	-0.158	-0.0931	-0.894	0.0265	-0.192	0.125	0.103
CGCCCGA	-0.0425	-0.0706	-0.104	-0.24	-0.0596	-0.6	0.0215	-0.0547	-0.143	-0.146
CATCGGT	-0.00924	-0.106	0.0768	0.0864	0.031	-0.0358	0.0199	0.023	0.0375	0.000603

Sequence	uncleaved DNA left (log2) [1]	uncleaved DNA left (log2) [2]	uncleaved DNA left (log2) [3]	uncleaved DNA left (log2) [4]	uncleaved DNA left (log2) [5]	uncleaved DNA left (log2) [6]	uncleaved DNA left (log2) [7]	uncleaved DNA left (log2) [8]	uncleaved DNA left (log2) [9]	uncleaved DNA left (log2) [10]
CTTGTTT	-0.079	-0.206	-0.113	-2.05	-0.0131	-0.846	-1.34	-0.125	-0.000212	-0.169
AGTCAGT	-0.0346	0.0399	-0.0604	-0.169	-0.148	-0.47	-3.17	0.0581	0.0408	-0.00228
CCATGCC	-0.0186	0.0345	-0.584	-0.634	-0.0241	-1.18	0.0333	-0.106	-0.0552	-0.186
ATCGGTC	0.128	0.0371	0.0605	0.141	0.0535	-0.378	0.153	-0.0462	0.0491	0.0317
TATAGTA	-0.178	-0.181	-0.252	-2.05	0.00504	-0.517	-0.474	-0.125	-0.0528	-0.15
TAACGAT	-0.11	-0.229	-2.01	-2.85	-0.12	0.401	-0.252	-0.159	-0.163	-0.654
GCTTTTA	0.0883	0.182	0.181	0.339	0.132	0.946	0.0741	0.0509	-0.0247	0.0633
ACAGGCG	-0.0649	0.073	0.391	1.77	0.0735	1.79	0.175	0.00975	0.0863	-0.0225
TAGATAG	0.0536	0.0107	-0.736	-0.623	0.125	-1.06	0.103	0.0906	0.089	0.0186
GGGAGCC	-0.0179	0.135	0.753	1.83	-0.114	2.13	0.128	0.022	0.0494	0.176
TTACCTT	-0.0634	-0.0539	-0.338	-2.9	-0.177	-0.266	-1.69	-0.224	-0.0963	-0.255
CGTTACC	-0.0408	0.0368	-0.043	-1.48	-0.0135	-0.272	-1.02	-0.0341	0.0162	-0.0397
ACGGGCT	0.00493	0.127	-0.194	-0.676	-0.0361	-0.507	0.161	0.114	-0.0114	-0.0164
GTGCTCC	0.0205	0.0675	0.257	0.794	-0.0873	1.79	0.029	-0.0361	0.0221	0.0371
CTGACCC	-0.0486	-0.0311	0.023	0.4	-0.0501	0.188	-0.021	-0.0249	-0.073	0.044
TTGAAAA	0.0868	0.177	0.375	0.849	0.12	0.616	0.184	0.294	0.215	0.276
TTTGGAT	-0.0801	-0.0338	0.196	1.36	-0.0618	1.77	0.0534	0.0555	-0.282	-0.0723
CGAAGCA	0.118	0.142	0.311	0.959	0.0921	0.958	-0.195	0.155	0.0436	0.176
GACTGAA	-0.0388	0.0324	0.117	0.695	0.0422	1.25	-0.805	0.0335	0.0258	0.112
TGCAGGT	0.0143	0.00926	0.187	0.953	-0.0455	1.37	0.117	0.0268	-0.138	0.00814
